Assay results as given in PubChem BioAssay AID485344 (National Center for Advancing Translational Sciences (NCATS), 2010).
In all, about 340,000 compounds went through this assay and about 6,900 (2%) were called active. No stated cut-off is given here; in the data, active means inhibition above about 30%; inactive means below that, where a call was filed. This is a selection; strong and weak results do not stand in their true shares. The source gives no active or inactive call for entries shown without one.

Biological target: D(2) dopamine receptor (Homo sapiens) (UniProt P14416)
Sequence of UniProt P14416 (P14416 whole entry, looked up): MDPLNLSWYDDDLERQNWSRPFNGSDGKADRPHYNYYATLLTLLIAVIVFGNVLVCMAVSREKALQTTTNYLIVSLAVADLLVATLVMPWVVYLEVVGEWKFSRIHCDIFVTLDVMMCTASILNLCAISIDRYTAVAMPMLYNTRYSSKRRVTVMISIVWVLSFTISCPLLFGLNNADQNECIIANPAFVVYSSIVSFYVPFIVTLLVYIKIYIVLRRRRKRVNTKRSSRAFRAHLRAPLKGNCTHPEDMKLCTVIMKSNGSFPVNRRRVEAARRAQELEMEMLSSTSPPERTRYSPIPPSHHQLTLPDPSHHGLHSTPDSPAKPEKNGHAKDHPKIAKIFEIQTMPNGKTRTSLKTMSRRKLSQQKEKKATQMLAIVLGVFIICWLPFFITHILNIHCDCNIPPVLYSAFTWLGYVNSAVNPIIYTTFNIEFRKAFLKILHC
Test: HTS Assay for Allosteric Antagonists of the Human D2 Dopamine Receptor: Primary Screen for Antagonists; further: 0% is about no effect
Conditions: HEK293 TREx D2 cells, calcium flux, dopamine EC80; at 10 µM; stronger effect = higher value
In short: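 Measurement of antagonist activity uses fluorescent calcium dye in inducible HEK293 T-REx D2 cells: 10 s baseline, compound addition with 180 s read, EC80 dopamine addition with a further 180 s read.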

SMILES	inhibition
O=C(CN1C(=O)COc2ccccc21)NCCCN1CCc2ccccc2C1	active: 57.7%
N#Cc1ccc(-c2cccs2)nc1SCC(=O)Nc1cccc(C(F)(F)F)c1	-1.86%
CCCCCn1c(=O)[nH]c2cc(C(=O)Nc3ccc(F)c(F)c3)ccc2c1=O	13.4%
Cc1cc(SCC(=O)NCc2ccc(Cl)cc2)nc(=O)[nH]1	-15.1%
CCN(CC)CCOC(=O)c1ccc(NC(=O)c2cc3c(=O)n(CC)c4ccccc4c3s2)cc1	4.71%
Cc1ccccc1C(=O)Nc1cccc(OCc2cc(=O)n3c(C)csc3n2)c1	11.6%
COc1cc(C(=O)NCC(c2cccs2)N(C)C)cc(Cl)c1OC(C)C (stereo unspecified)	active: 34.5%
CCN1CCN(Cc2c(O)ccc3c(C)c(-c4ccc(OC)cc4)c(=O)oc23)CC1	1.82%
Cc1cccc(NC(=O)c2cc(S(=O)(=O)NCCc3ccccc3)ccc2F)c1C	20.2%
COc1ccccc1C1c2c(-c3ccc(Cl)cc3)n[nH]c2C(=O)N1c1ccc(C)cc1 (stereo unspecified)	22.2%
CCCNC(=O)CSc1nc2ccc(OCC)cc2s1	active: 35.2%
Cc1ccc(S(=O)(=O)N2CCC(C(=O)NCc3ccccc3Cl)CC2)cc1	7.74%
COc1ccc(NC(=O)C2=CC(c3ccco3)=NS(=O)(=O)N2C)cc1	-1.84%
Cc1ccc(/C=N/N2CCN(Cc3ccc(C)cc3)CC2)cc1	active: 54.9%
COc1ccc2nc3sc(C(=O)NCCN4CCc5ccccc5C4)cc3cc2c1	active: 53.5%
CCS(=O)(=O)c1nc(S(=O)(=O)c2ccc(Cl)cc2)c(NCc2ccccc2Cl)s1	1.03%
Cc1ccccc1-c1nc2cc(NC(=O)COc3ccc(F)cc3)ccc2o1	7.63%
CCOC(=O)c1c(-c2ccccc2)csc1NC(=O)c1cc(-c2ccc(Cl)cc2)on1	4.87%
CC1=C(C(=O)Nc2ccc(C)cc2C)C(c2ccccc2)n2ncc(C(=O)Nc3ccccc3)c2N1 (stereo unspecified)	-11.8%
CCOC(=O)c1sc(NC(=O)c2cc(-c3ccc(F)cc3)on2)c(C(=O)OCC)c1C	-8.49%
COC(=O)c1ccc2c(=O)n(CCCCCC(=O)N3CCN(c4ccc(OC)cc4)CC3)c(=O)[nH]c2c1	16.7%
Cc1ccc(NC(=O)C2CCCN(S(=O)(=O)c3cccc4cccnc34)C2)c(C)c1 (stereo unspecified)	-1.41%
Cc1c(CC(=O)NCCc2ccc(Cl)cc2)c(=O)oc2c(C)c3occ(C(C)(C)C)c3cc12	-6.84%
CCOC(=O)CSc1nc2ccc(NC(=O)c3ccccc3F)cc2s1	4.15%
CCc1ccc(-n2nc3ccc(NC(=O)c4ccc(C#N)cc4F)cc3n2)cc1	15.2%
COc1cccc(CNC(=O)C2CCN(c3nnc(-n4c(C)ccc4C)s3)CC2)c1	10.7%
